# Reference: the supplement of paper PMC8728848
# The other results are listed elsewhere or left out.
# Key:
# Experiment in all cases: glycan array binding signal (z-score within array); higher = stronger binding
# Details in all cases: glycan notation: IUPAC condensed, linker removed
# [1] = target: Gal(b1-4)GlcNAc(b1-3)GalNAc
# Method in brief: (§1)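 From the Consortium for Functional Glycomics database, 3228 arrays were curated, keeping only those whose protein sequence was available. Binding is given as a within-array Z-score averaged across arrays sharing a protein sequence and across linkers. Negative Z-scores can be read as non-binding.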
# [2] = target: Gal(b1-4)GlcNAc(b1-3)[Gal(b1-4)GlcNAc(b1-6)]GalNAc
# Method in brief: as §1
# [3] = target: Gal(b1-4)GlcNAc(b1-6)Gal(b1-4)GlcNAc(b1-6)GalNAc
# Method in brief: as §1
# [4] = target: Gal(b1-4)GlcNAc(b1-6)GalNAc
# Method in brief: as §1
# [5] = target: Gal(b1-4)GlcNAc(b1-6)[Gal(b1-3)]GalNAc
# Method in brief: as §1
# Gal3S(b1-3)GalNAc = target: Gal3S(b1-3)GalNAc
# Method in brief: as §1
# Gal3S(b1-3)GlcNAc = target: Gal3S(b1-3)GlcNAc
# Method in brief: as §1
# [6] = target: Gal3S(b1-3)[Fuc(a1-4)]GlcNAc
# Method in brief: as §1
# Gal3S(b1-4)Glc = target: Gal3S(b1-4)Glc
# Method in brief: as §1
# Gal3S(b1-4)Glc6S = target: Gal3S(b1-4)Glc6S
# Method in brief: as §1
# Gal3S(b1-4)GlcNAc = target: Gal3S(b1-4)GlcNAc
# Method in brief: as §1
# Gal3S(b1-4)GlcNAc6S = target: Gal3S(b1-4)GlcNAc6S
# Method in brief: as §1
# Gal3S6S(b1-4)GlcNAc = target: Gal3S6S(b1-4)GlcNAc
# Method in brief: as §1
# Gal3S6S(b1-4)GlcNAc6S = target: Gal3S6S(b1-4)GlcNAc6S
# Method in brief: as §1
# Gal4S(b1-4)GlcNAc = target: Gal4S(b1-4)GlcNAc
# Method in brief: as §1
# Gal4S6S(b1-4)GlcNAc = target: Gal4S6S(b1-4)GlcNAc
# Method in brief: as §1
# Gal6S(b1-4)Glc = target: Gal6S(b1-4)Glc
# Method in brief: as §1
# Gal6S(b1-4)Glc6S = target: Gal6S(b1-4)Glc6S
# Method in brief: as §1
# Gal6S(b1-4)GlcNAc = target: Gal6S(b1-4)GlcNAc
# Method in brief: as §1
# GalNAc(a1-3)Gal = target: GalNAc(a1-3)Gal
# Method in brief: as §1
# GalNAc(a1-3)GalNAc = target: GalNAc(a1-3)GalNAc
# Method in brief: as §1
# [7] = target: GalNAc(b1-3)Gal(a1-4)Gal(b1-4)GlcNAc
# Method in brief: as §1
# GalNAc(b1-3)GalNAc = target: GalNAc(b1-3)GalNAc
# Method in brief: as §1
# GalNAc(b1-4)GlcNAc = target: GalNAc(b1-4)GlcNAc
# Method in brief: as §1
# Glc(a1-4)Glc = target: Glc(a1-4)Glc
# Method in brief: as §1
# Glc(a1-6)Glc(a1-6)Glc = target: Glc(a1-6)Glc(a1-6)Glc
# Method in brief: as §1
# Glc(b1-4)Glc = target: Glc(b1-4)Glc
# Method in brief: as §1
# Glc(b1-6)Glc = target: Glc(b1-6)Glc
# Method in brief: as §1
# GlcA(b1-3)Gal = target: GlcA(b1-3)Gal
# Method in brief: as §1
# GlcA(b1-6)Gal = target: GlcA(b1-6)Gal
# Method in brief: as §1
# [8] = target: GlcNAc(a1-3)Gal(b1-4)GlcNAc
# Method in brief: as §1
# [9] = target: GlcNAc(a1-6)Gal(b1-4)GlcNAc
# Method in brief: as §1
# [10] = target: GlcNAc(b1-2)Gal(b1-3)GalNAc
# Method in brief: as §1
# [11] = target: GlcNAc(b1-2)Man(a1-3)[GlcNAc(b1-2)Man(a1-6)]Man(b1-4)GlcNAc(b1-4)GlcNAc
# Method in brief: as §1
# GlcNAc(b1-3)Gal = target: GlcNAc(b1-3)Gal
# Method in brief: as §1
# [12] = target: GlcNAc(b1-3)Gal(b1-3)GalNAc
# Method in brief: as §1
# GlcNAc(b1-3)Gal(b1-4)Glc = target: GlcNAc(b1-3)Gal(b1-4)Glc
# Method in brief: as §1
binder,measurement,setting,value
FaeGac (Escherichia coli) (protein) WMTGDFNGSVDIGGSITADDYRQKWEWKVGTGLNGFGNVLNDLTNGGTKLTITVTGNKPILLGRTKEAFATPVTGGVDGIPHIAFTDYEGASVVLRNPDGETNKKGLAYFVLPMKNAEGTKVGSVKVNASYAGVLGRGGVTSADGELLSLFADGLSSIFYGGLPRGSELSAGSAAAERTKLFGSLSRNDILGQIQRVNANITSLVDVAGSYRENMEYTDGTVVSAAYALGIANGQTIEATFNQAVTTSTQWSAPLNVAITYY,glycan array binding signal (z-score),[1],-0.616
same,glycan array binding signal (z-score),[2],-0.587
same,glycan array binding signal (z-score),[3],-0.536
same,glycan array binding signal (z-score),[4],-0.133
same,glycan array binding signal (z-score),[5],-0.003
same,glycan array binding signal (z-score),Gal3S(b1-3)GalNAc,-0.15
same,glycan array binding signal (z-score),Gal3S(b1-3)GlcNAc,-0.048
same,glycan array binding signal (z-score),[6],-0.218
same,glycan array binding signal (z-score),Gal3S(b1-4)Glc,0.35
same,glycan array binding signal (z-score),Gal3S(b1-4)Glc6S,0.303
same,glycan array binding signal (z-score),Gal3S(b1-4)GlcNAc,0.384
same,glycan array binding signal (z-score),Gal3S(b1-4)GlcNAc6S,0.005
same,glycan array binding signal (z-score),Gal3S6S(b1-4)GlcNAc,-0.64
same,glycan array binding signal (z-score),Gal3S6S(b1-4)GlcNAc6S,-0.43
same,glycan array binding signal (z-score),Gal4S(b1-4)GlcNAc,-0.253
same,glycan array binding signal (z-score),Gal4S6S(b1-4)GlcNAc,-0.495
same,glycan array binding signal (z-score),Gal6S(b1-4)Glc,-0.124
same,glycan array binding signal (z-score),Gal6S(b1-4)Glc6S,0.68
same,glycan array binding signal (z-score),Gal6S(b1-4)GlcNAc,-0.602
same,glycan array binding signal (z-score),GalNAc(a1-3)Gal,0.387
same,glycan array binding signal (z-score),GalNAc(a1-3)GalNAc,0.516
same,glycan array binding signal (z-score),[7],-0.196
same,glycan array binding signal (z-score),GalNAc(b1-3)GalNAc,0.702
same,glycan array binding signal (z-score),GalNAc(b1-4)GlcNAc,0.379
same,glycan array binding signal (z-score),Glc(a1-4)Glc,10.9
same,glycan array binding signal (z-score),Glc(a1-6)Glc(a1-6)Glc,6.96
same,glycan array binding signal (z-score),Glc(b1-4)Glc,2.95
same,glycan array binding signal (z-score),Glc(b1-6)Glc,0.954
same,glycan array binding signal (z-score),GlcA(b1-3)Gal,1.3
same,glycan array binding signal (z-score),GlcA(b1-6)Gal,1.4
same,glycan array binding signal (z-score),[8],0.517
same,glycan array binding signal (z-score),[9],0.413
same,glycan array binding signal (z-score),[10],0.073
same,glycan array binding signal (z-score),[11],0.526
same,glycan array binding signal (z-score),GlcNAc(b1-3)Gal,0.721
same,glycan array binding signal (z-score),[12],-0.178
same,glycan array binding signal (z-score),GlcNAc(b1-3)Gal(b1-4)Glc,0.137
